# This is one part of the list.
# B1: PX14367A-bth-493-35-493 (Bacteroides thetaiotaomicron) (protein)
# chain: VSSDQVAVAGNAERLFNGAWYNLFEYGTTYANIGYRALQCQDDMMASDVVSRPKYGFNSSYQFNDVAIPSDGRTSFAWYLIYKTIDNCNTAISIKGDSEELRQAQGQALALRAFCYLHLVQHYQFTYLKDKDAPCVPIYTEPTTSGTKPKGKSTVAQVYQQIFDDLNLAQDYLTNYVRKGDGQKFKPNTDVVNGLMARAYLLTGQWGEAAKAAEAARKGYSLMTTTAEYEGFNNISNKEWIWGSPQTLSQSDASYNFYYLDATYVGAYSSFMADPHLMDTFVKGDIRLPLFQWMREGYLGYKKFHMRSDDTADLVLMRSAEMYLIEAEAKVRDGVALDQAVAPLNTLRTARGVGNYDVTGKTKEQVIDEILMERRRELWGEGFGITDVLRNQKAVERMALSEDMQKTEVDCWQEGGSFAKRNPLGHWFLNFPDGKAFSANSSYYLYAIPEKEINANPNL
# Assays:
# Experiment in all cases: glycan array binding signal (z-score within array); higher = stronger binding
# Conditions in all cases: glycan notation: IUPAC condensed, linker removed
# [1] = target: Neu5Ac(a2-3)Gal(b1-4)Glc
# How it was run: (§1)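 The Consortium for Functional Glycomics database supplied 3228 glycan arrays, of which those lacking an available protein sequence were dropped. The binding signal, a within-array Z-score, was averaged across arrays of the same protein sequence and across linkers. Negative scores can be read as non-binding.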
# [2] = target: Neu5Ac(a2-3)Gal(b1-4)GlcNAc
# How it was run: as §1
# [3] = target: Neu5Ac(a2-3)Gal(b1-4)GlcNAc(b1-2)Man
# How it was run: as §1
# [4] = target: Neu5Ac(a2-3)Gal(b1-4)GlcNAc(b1-2)Man(a1-3)[GlcNAc(b1-4)][Neu5Ac(a2-3)Gal(b1-4)GlcNAc(b1-2)Man(a1-6)]Man(b1-4)GlcNAc(b1-4)GlcNAc
# How it was run: as §1
# [5] = target: Neu5Ac(a2-3)Gal(b1-4)GlcNAc(b1-2)Man(a1-3)[Neu5Ac(a2-3)Gal(b1-4)GlcNAc(b1-2)Man(a1-6)]Man(b1-4)GlcNAc(b1-4)GlcNAc
# How it was run: as §1
# [6] = target: Neu5Ac(a2-3)Gal(b1-4)GlcNAc(b1-2)Man(a1-3)[Neu5Ac(a2-3)Gal(b1-4)GlcNAc(b1-2)Man(a1-6)]Man(b1-4)GlcNAc(b1-4)[Fuc(a1-6)]GlcNAc
# How it was run: as §1
# [7] = target: Neu5Ac(a2-3)Gal(b1-4)GlcNAc(b1-2)Man(a1-3)[Neu5Ac(a2-6)Gal(b1-4)GlcNAc(b1-2)Man(a1-6)]Man(b1-4)GlcNAc(b1-4)GlcNAc
# How it was run: as §1
# [8] = target: Neu5Ac(a2-3)Gal(b1-4)GlcNAc(b1-2)[Neu5Ac(a2-3)Gal(b1-4)GlcNAc(b1-4)]Man(a1-3)[GlcNAc(b1-4)][Neu5Ac(a2-3)Gal(b1-4)GlcNAc(b1-2)[Neu5Ac(a2-3)Gal(b1-4)GlcNAc(b1-6)]Man(a1-6)]Man(b1-4)GlcNAc(b1-4)GlcNAc
# How it was run: as §1
# [9] = target: Neu5Ac(a2-3)Gal(b1-4)GlcNAc(b1-2)[Neu5Ac(a2-3)Gal(b1-4)GlcNAc(b1-4)]Man(a1-3)[GlcNAc(b1-4)][Neu5Ac(a2-3)Gal(b1-4)GlcNAc(b1-4)Man(a1-6)]Man(b1-4)GlcNAc(b1-4)GlcNAc
# How it was run: as §1
# [10] = target: Neu5Ac(a2-3)Gal(b1-4)GlcNAc(b1-2)[Neu5Ac(a2-3)Gal(b1-4)GlcNAc(b1-6)]Man(a1-6)[Neu5Ac(a2-3)Gal(b1-4)GlcNAc(b1-2)Man(a1-3)]Man(b1-4)GlcNAc(b1-4)GlcNAc
# How it was run: as §1
# [11] = target: Neu5Ac(a2-3)Gal(b1-4)GlcNAc(b1-2)[Neu5Ac(a2-3)Gal(b1-4)GlcNAc(b1-6)]Man(a1-6)[Neu5Ac(a2-3)Gal(b1-4)GlcNAc(b1-2)Man(a1-3)][GlcNAc(b1-4)]Man(b1-4)GlcNAc(b1-4)GlcNAc
# How it was run: as §1
# [12] = target: Neu5Ac(a2-3)Gal(b1-4)GlcNAc(b1-3)Gal
# How it was run: as §1
# [13] = target: Neu5Ac(a2-3)Gal(b1-4)GlcNAc(b1-3)Gal(b1-3)GlcNAc
# How it was run: as §1
# [14] = target: Neu5Ac(a2-3)Gal(b1-4)GlcNAc(b1-3)Gal(b1-4)GlcNAc
# How it was run: as §1
# [15] = target: Neu5Ac(a2-3)Gal(b1-4)GlcNAc(b1-3)Gal(b1-4)GlcNAc(b1-2)Man(a1-3)[Neu5Ac(a2-3)Gal(b1-4)GlcNAc(b1-3)Gal(b1-4)GlcNAc(b1-2)Man(a1-6)]Man(b1-4)GlcNAc(b1-4)GlcNAc
# How it was run: as §1
# [16] = target: Neu5Ac(a2-3)Gal(b1-4)GlcNAc(b1-3)Gal(b1-4)GlcNAc(b1-3)Gal(b1-4)GlcNAc
# How it was run: as §1
# [17] = target: Neu5Ac(a2-3)Gal(b1-4)GlcNAc(b1-3)Gal(b1-4)GlcNAc(b1-3)Gal(b1-4)GlcNAc(b1-2)Man(a1-3)[Neu5Ac(a2-3)Gal(b1-4)GlcNAc(b1-3)Gal(b1-4)GlcNAc(b1-3)Gal(b1-4)GlcNAc(b1-2)Man(a1-6)]GalNAc
# How it was run: as §1
# [18] = target: Neu5Ac(a2-3)Gal(b1-4)GlcNAc(b1-3)Gal(b1-4)GlcNAc(b1-3)GalNAc
# How it was run: as §1
# [19] = target: Neu5Ac(a2-3)Gal(b1-4)GlcNAc(b1-3)Gal(b1-4)GlcNAc(b1-3)[Neu5Ac(a2-3)Gal(b1-4)GlcNAc(b1-3)Gal(b1-4)GlcNAc(b1-6)]GalNAc
# How it was run: as §1
# [20] = target: Neu5Ac(a2-3)Gal(b1-4)GlcNAc(b1-3)Gal(b1-4)GlcNAc(b1-6)[Gal(b1-3)]GalNAc
# How it was run: as §1
# [21] = target: Neu5Ac(a2-3)Gal(b1-4)GlcNAc(b1-3)Gal(b1-4)[Fuc(a1-3)]GlcNAc
# How it was run: as §1
# [22] = target: Neu5Ac(a2-3)Gal(b1-4)GlcNAc(b1-3)GalNAc
# How it was run: as §1
# [23] = target: Neu5Ac(a2-3)Gal(b1-4)GlcNAc(b1-3)[Neu5Ac(a2-3)Gal(b1-4)GlcNAc(b1-6)]GalNAc
# How it was run: as §1
# [24] = target: Neu5Ac(a2-3)Gal(b1-4)GlcNAc(b1-6)GalNAc
# How it was run: as §1
# [25] = target: Neu5Ac(a2-3)Gal(b1-4)GlcNAc(b1-6)[Gal(b1-3)]GalNAc
# How it was run: as §1
# [26] = target: Neu5Ac(a2-3)Gal(b1-4)GlcNAc(b1-6)[Neu5Ac(a2-3)Gal(b1-3)]GalNAc
# How it was run: as §1
# [27] = target: Neu5Ac(a2-3)Gal(b1-4)GlcNAc6S
# How it was run: as §1
# [28] = target: Neu5Ac(a2-3)Gal(b1-4)[Fuc(a1-3)]GlcNAc
# How it was run: as §1
# [29] = target: Neu5Ac(a2-3)Gal(b1-4)[Fuc(a1-3)]GlcNAc(b1-2)Man
# How it was run: as §1
# [30] = target: Neu5Ac(a2-3)Gal(b1-4)[Fuc(a1-3)]GlcNAc(b1-3)Gal
# How it was run: as §1
# [31] = target: Neu5Ac(a2-3)Gal(b1-4)[Fuc(a1-3)]GlcNAc(b1-3)Gal(b1-4)GlcNAc
# How it was run: as §1
# [32] = target: Neu5Ac(a2-3)Gal(b1-4)[Fuc(a1-3)]GlcNAc(b1-3)Gal(b1-4)[Fuc(a1-3)]GlcNAc(b1-3)Gal(b1-4)[Fuc(a1-3)]GlcNAc
# How it was run: as §1
# [33] = target: Neu5Ac(a2-3)Gal(b1-4)[Fuc(a1-3)]GlcNAc(b1-3)GalNAc
# How it was run: as §1
# [34] = target: Neu5Ac(a2-3)Gal(b1-4)[Fuc(a1-3)]GlcNAc(b1-6)[Gal(b1-3)]GalNAc
# How it was run: as §1
# [35] = target: Neu5Ac(a2-3)Gal(b1-4)[Fuc(a1-3)]GlcNAc(b1-6)[Neu5Ac(a2-3)Gal(b1-3)]GalNAc
# How it was run: as §1
# [36] = target: Neu5Ac(a2-3)Gal(b1-4)[Fuc(a1-3)]GlcNAc6S
# How it was run: as §1
# [37] = target: Neu5Ac(a2-3)Gal6S(b1-4)GlcNAc
# How it was run: as §1
# [38] = target: Neu5Ac(a2-3)Gal6S(b1-4)[Fuc(a1-3)]GlcNAc
# How it was run: as §1
binder,measurement,setting,value
B1,glycan array binding signal (z-score),[1],0.072
same,glycan array binding signal (z-score),[2],-0.15
same,glycan array binding signal (z-score),[3],0.126
same,glycan array binding signal (z-score),[4],-0.343
same,glycan array binding signal (z-score),[5],0.083
same,glycan array binding signal (z-score),[6],-0.436
same,glycan array binding signal (z-score),[7],-0.4
same,glycan array binding signal (z-score),[8],0.838
same,glycan array binding signal (z-score),[9],-0.007
same,glycan array binding signal (z-score),[10],0.867
same,glycan array binding signal (z-score),[11],-0.621
same,glycan array binding signal (z-score),[12],-0.356
same,glycan array binding signal (z-score),[13],-0.168
same,glycan array binding signal (z-score),[14],-0.547
same,glycan array binding signal (z-score),[15],-0.364
same,glycan array binding signal (z-score),[16],-0.083
same,glycan array binding signal (z-score),[17],1.29
same,glycan array binding signal (z-score),[18],0.122
same,glycan array binding signal (z-score),[19],0.395
same,glycan array binding signal (z-score),[20],-0.037
same,glycan array binding signal (z-score),[21],-0.478
same,glycan array binding signal (z-score),[22],-0.667
same,glycan array binding signal (z-score),[23],0.867
same,glycan array binding signal (z-score),[24],-0.497
same,glycan array binding signal (z-score),[25],-0.625
same,glycan array binding signal (z-score),[26],-0.218
same,glycan array binding signal (z-score),[27],-0.316
same,glycan array binding signal (z-score),[28],-0.663
same,glycan array binding signal (z-score),[29],-0.443
same,glycan array binding signal (z-score),[30],-0.347
same,glycan array binding signal (z-score),[31],-0.21
same,glycan array binding signal (z-score),[32],0.154
same,glycan array binding signal (z-score),[33],0.004
same,glycan array binding signal (z-score),[34],-0.22
same,glycan array binding signal (z-score),[35],0.509
same,glycan array binding signal (z-score),[36],-0.473
same,glycan array binding signal (z-score),[37],-0.419
same,glycan array binding signal (z-score),[38],-0.209

# From the supplement of paper PMC8728848
